# Test results published in PubChem BioAssay AID504333 (National Center for Advancing Translational Sciences (NCATS), 2011).
# Hit rate of the full screen: of about 360,000 compounds, about 16,000 (4.4%) were called active. The inconclusive results got no clear call from the source; some entries with a clear call stand among them for comparison. Calls come from the whole dose curve; as a rule, active = well fitted inhibition curve with a large enough effect; inconclusive = small, poorly fitted or top-dose-only effect; inactive = no such curve, though single readings can be large or run the other way. Potencies beside an inconclusive call are fits to weak or partial responses and may not hold up.
# Target: Bromodomain adjacent to zinc finger domain protein 2B (Homo sapiens) (UniProt Q9UIF8)
# Experiment: qHTS Assay for Inhibitors of BAZ2B; note: nearly all actives have a fitted effect of over 60% in size
# Settings: AlphaScreen BAZ2B-H3K14Ac peptide displacement; activity change, negative = inhibition: at 114 µM (top of the series) unless noted
# How it was run: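 Inhibition is scored as reduced AlphaScreen emission. The BAZ2B/b-H3(5-23)K14Ac complex (50 nM each) in PBS pH 7.4, 0.01% Tween-20 meets compound (up to 110 uM) for 30 min at RT before bead addition.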
# % is set by controls: 0 for no effect and ±100 for the full control effect; potency is the fitted concentration of half-maximal effect; tags give direction and shape of the fitted curve.
# UniProt Q9UIF8, sequence (Q9UIF8 whole entry, looked up, the tested form may be a part): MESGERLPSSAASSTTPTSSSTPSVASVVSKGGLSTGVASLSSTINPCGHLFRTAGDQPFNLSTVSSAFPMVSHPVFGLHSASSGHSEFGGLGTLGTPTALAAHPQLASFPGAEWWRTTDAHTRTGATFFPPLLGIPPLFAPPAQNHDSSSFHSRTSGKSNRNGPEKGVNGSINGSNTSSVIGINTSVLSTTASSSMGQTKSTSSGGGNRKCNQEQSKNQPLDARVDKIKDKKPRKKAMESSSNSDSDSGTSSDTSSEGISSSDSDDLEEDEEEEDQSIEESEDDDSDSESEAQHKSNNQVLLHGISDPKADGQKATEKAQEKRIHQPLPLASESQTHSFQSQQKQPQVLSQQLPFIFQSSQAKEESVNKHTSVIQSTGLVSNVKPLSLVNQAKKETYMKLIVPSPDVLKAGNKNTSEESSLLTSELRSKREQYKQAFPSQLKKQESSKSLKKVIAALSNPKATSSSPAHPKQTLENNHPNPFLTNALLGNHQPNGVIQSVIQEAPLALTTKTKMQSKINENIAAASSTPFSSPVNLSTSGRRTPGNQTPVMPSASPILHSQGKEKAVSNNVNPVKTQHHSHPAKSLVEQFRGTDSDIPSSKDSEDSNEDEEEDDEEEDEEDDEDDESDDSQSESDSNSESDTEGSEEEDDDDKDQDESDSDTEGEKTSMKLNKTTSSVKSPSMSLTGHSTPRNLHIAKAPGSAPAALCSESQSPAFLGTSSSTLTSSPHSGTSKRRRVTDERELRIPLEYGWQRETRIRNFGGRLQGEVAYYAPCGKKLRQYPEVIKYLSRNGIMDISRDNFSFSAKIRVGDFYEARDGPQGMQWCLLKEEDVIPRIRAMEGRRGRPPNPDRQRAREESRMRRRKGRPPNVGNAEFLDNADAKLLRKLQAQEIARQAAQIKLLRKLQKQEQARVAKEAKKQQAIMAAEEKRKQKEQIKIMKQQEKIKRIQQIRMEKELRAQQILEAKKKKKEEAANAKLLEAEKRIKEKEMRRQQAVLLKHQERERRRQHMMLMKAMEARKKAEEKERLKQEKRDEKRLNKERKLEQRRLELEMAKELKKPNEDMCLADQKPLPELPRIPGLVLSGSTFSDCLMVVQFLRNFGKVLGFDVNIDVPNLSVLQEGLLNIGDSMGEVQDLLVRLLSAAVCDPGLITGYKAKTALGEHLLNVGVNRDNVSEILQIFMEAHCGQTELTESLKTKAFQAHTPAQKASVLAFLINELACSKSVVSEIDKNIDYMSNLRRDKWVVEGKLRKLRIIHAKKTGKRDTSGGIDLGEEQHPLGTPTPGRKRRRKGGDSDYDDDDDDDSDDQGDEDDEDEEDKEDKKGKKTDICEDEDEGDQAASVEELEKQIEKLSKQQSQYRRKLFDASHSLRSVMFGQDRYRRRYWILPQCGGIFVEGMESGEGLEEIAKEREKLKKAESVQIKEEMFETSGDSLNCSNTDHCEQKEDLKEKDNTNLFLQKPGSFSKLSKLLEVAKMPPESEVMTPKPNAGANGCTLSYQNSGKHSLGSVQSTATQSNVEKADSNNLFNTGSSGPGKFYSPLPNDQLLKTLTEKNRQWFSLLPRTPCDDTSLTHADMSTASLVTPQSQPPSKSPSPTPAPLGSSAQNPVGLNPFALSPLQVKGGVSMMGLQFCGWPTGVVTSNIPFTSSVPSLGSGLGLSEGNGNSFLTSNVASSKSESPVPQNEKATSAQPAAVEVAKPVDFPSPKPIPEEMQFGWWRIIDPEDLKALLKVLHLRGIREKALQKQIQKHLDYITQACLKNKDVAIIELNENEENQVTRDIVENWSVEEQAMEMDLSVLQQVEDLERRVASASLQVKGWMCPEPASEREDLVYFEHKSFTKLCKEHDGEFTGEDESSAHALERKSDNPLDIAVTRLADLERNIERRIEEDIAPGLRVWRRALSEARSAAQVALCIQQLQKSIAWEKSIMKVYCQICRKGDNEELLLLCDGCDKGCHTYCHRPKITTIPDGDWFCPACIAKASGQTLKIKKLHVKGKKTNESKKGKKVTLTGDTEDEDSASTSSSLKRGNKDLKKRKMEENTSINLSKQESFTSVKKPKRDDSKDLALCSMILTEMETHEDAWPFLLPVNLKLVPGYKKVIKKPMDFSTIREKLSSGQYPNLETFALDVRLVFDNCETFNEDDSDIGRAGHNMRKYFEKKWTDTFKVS
Compound,Potency,"activity change, negative = inhibition"
CCOC(=O)N1CCN(C2=C(NS(=O)(=O)c3ccc(C)cc3)C(=O)c3ccccc3C2=O)CC1,active: 8.91 µM,
Cc1ccc(C)n1-n1c(C)nc2scc(-c3ccccc3)c2c1=O,"inconclusive: 89.1 µM [inhibitor, single point]",
Brc1ccc(-c2csc(NNC3=NCCCCC3)n2)cc1,active: 35.5 µM,
Cc1cs/c(=N\N=C\c2ccc(O)cc2)n1Cc1ccco1,active: 44.7 µM,
COc1ccc(N2CCN(C(=O)C(=O)c3cn(CC(=O)N4CCCCCC4)c4ccccc34)CC2)cc1,"inconclusive: 31.6 µM [inhibitor, partial curve]",
O=C(NCc1cccnc1)c1ccc(-c2cccc(Cl)c2Cl)o1,active: 70.8 µM,
CC(C)Nc1cc(N2CCN(C3CCCCC3)CC2)c2noc3c2c1C(=O)c1ccccc1-3,active: 12.6 µM,
O=C(N/N=C/c1ccc(N2CCCC2)c([N+](=O)[O-])c1)c1cccnc1,"inconclusive: 79.4 µM [inhibitor, partial curve]",
CCCCn1c(N)c(N(CCOC)C(=O)c2c(C)noc2C)c(=O)[nH]c1=O,,inactive: 10.8%
Cc1occc1C(=O)Nc1nn[nH]n1,"inconclusive: 25.1 µM [inhibitor, single point]",
Cc1cc2c(n1-c1ccc(C(=O)NCc3cccc(Br)c3)cc1)CCC(C)C2 (centres undefined),"inconclusive: 79.4 µM [inhibitor, single point]",
CC1=C(C(=O)Nc2ccccc2)C2(CCCCC2)C(C#N)=C(SCC(N)=O)N1,"inconclusive: 12.6 µM [inhibitor, single point]",
CN(C)Cc1nc2ccccc2c(=O)n1Cc1nc(-c2cc3ccccc3o2)cs1,"inconclusive: 44.7 µM [inhibitor, partial curve]",
CC1(C2(O)CCCCC2)NCCc2ccccc21 (centres undefined),active: 35.5 µM,
COc1ccc(-c2cc(C(=O)Nc3sc4c(c3C#N)CCCC4)c3ccccc3n2)cc1OC,"inconclusive: 89.1 µM [inhibitor, single point]",
O=C(CCSc1ccc(Cl)cc1)NCc1ccncc1,"inconclusive: 89.1 µM [inhibitor, single point]",
O=C(N[C@@H](Cc1ccccc1)C(=O)O)c1cccs1,"inconclusive: 89.1 µM [inhibitor, single point]",
CCn1c(SCC(=O)Nc2nc3ccc(OC)cc3s2)nnc1-c1ccoc1C,"inconclusive: 44.7 µM [inhibitor, partial curve]",
CCCCN1C(=O)C(NC(C)=O)c2cc(Br)ccc21 (centres undefined),,inactive: -8.25%
CCn1nnc(NC(=O)c2ccc(-c3ccccc3[N+](=O)[O-])o2)n1,"inconclusive: 79.4 µM [inhibitor, single point]",
Cc1ccc(S(=O)(=O)N2CCN(S(=O)(=O)N3CCOCC3)CC2)cc1,"inconclusive: 89.1 µM [inhibitor, single point]",
Cc1cc(C)cc(-n2c(C)cc(/C=N/NC(=O)CN(c3c(C)cccc3C)S(C)(=O)=O)c2C)c1,"inconclusive: 70.8 µM [inhibitor, single point]",
Cc1csc(Nc2ccccc2)n1,"inconclusive: 70.8 µM [inhibitor, single point]",

Compound,Potency,"activity change, negative = inhibition"
Cc1ccc(N2CCN(CCCN3C(=O)C4CCCN4C3=O)CC2)cc1 (centres undefined),"inconclusive: 89.1 µM [inhibitor, single point]",
COC(CNC(=O)c1ccc(-n2c(=S)[nH]c3ccccc3c2=O)cc1)OC,"inconclusive: 89.1 µM [inhibitor, single point]",
O=C1CC(N2CCN(Cc3ccccc3)CC2)C(=O)N1c1ccc2c(c1)OCCO2 (centres undefined),"inconclusive: 89.1 µM [inhibitor, single point]",
C=CCn1c(O)c(N=Nc2ccccc2O)c2ccccc21,"inconclusive: 39.8 µM [inhibitor, partial curve]",
Cc1cnc(CN2CCc3c([nH]c4ccccc34)C2CC(C)C)[nH]1 (centres undefined),"inconclusive: 70.8 µM [inhibitor, single point]",
O=C(CCN1c2ccccc2Sc2ccccc21)Nc1ccccc1,"inconclusive: 89.1 µM [inhibitor, single point]",
CC(C(=O)NC1CC1)c1ncc(C(F)(F)F)cc1Cl (centres undefined),,inactive: 0.101%
O=C(/C=C/NNC(=O)c1ccccc1)c1ccc(Br)cc1,"inconclusive: 100 µM [inhibitor, single point]",
COc1ccccc1N1CCN(/N=C\c2sccc2C)CC1,active: 12.6 µM,
O=C(c1ccco1)N(Cc1ccccc1)Cc1ccccn1,"inconclusive: 70.8 µM [inhibitor, partial curve, poor fit]",
Cc1ccc(N2C(=O)[C@@H]3[C@H](C2=O)C2c4ccccc4C=NN2[C@@H]3C(=O)c2ccc(Cl)cc2)cc1 (some centres undefined),,inactive: 0.649%
O=C1NC(=O)C2C1C(c1cccs1)NN2Cc1ccccc1 (centres undefined),"inconclusive: 79.4 µM [inhibitor, single point]",
Cc1cc(Cl)c(S(=O)(=O)Nc2cc(S(=O)(=O)N3CCOCC3)ccc2F)cc1OCC(N)=O,"inconclusive: 89.1 µM [inhibitor, single point]",
COc1cc2cc(CCCOC(=O)CCC(=O)O)oc(=O)c2cc1OC,,inactive: 9.26%
CO/N=C/c1ccc(Oc2ccc([N+](=O)[O-])cc2[N+](=O)[O-])c(OC)c1,"inconclusive: 79.4 µM [inhibitor, single point]",
CC(=O)N1CCN(c2ccc(NC(=S)NC(=O)c3ccc(C)c([N+](=O)[O-])c3)cc2)CC1,"inconclusive: 79.4 µM [inhibitor, single point]",
COc1ccc(CNCCC(c2ccc(OC(C)C)cc2)c2ccccc2OC)cc1 (centres undefined),"inconclusive: 70.8 µM [inhibitor, single point]",
Cc1ccc(N=Nc2c(N)n[nH]c2N)cc1,"inconclusive: 50.1 µM [inhibitor, partial curve]",
CCCNc1c(N)c(=O)oc2ccccc12,"inconclusive: 100 µM [inhibitor, single point]",
COc1ccc(-n2c(-c3ccc(Cl)cc3)c[nH]c2=S)cc1,"inconclusive: 7.08 µM [inhibitor, full curve, poor fit]",
O=C(c1ccc2c(c1)CCN2S(=O)(=O)c1ccccc1)N1CCN(c2ccccc2)CC1,"inconclusive: 22.4 µM [inhibitor, single point]",
CC(=O)c1cccc(NC(=O)NCCc2c[nH]c3ccccc23)c1,,inactive: -7.02%
COc1ccccc1C(CCNCc1ccccc1)c1ccc(OC(C)C)cc1 (centres undefined),,inactive: -8.34%

Compound,Potency,"activity change, negative = inhibition"
COc1ccc(-c2cc(C(F)F)n3ncc(C(=O)N4CCc5ccccc54)c3n2)cc1,"inconclusive: 70.8 µM [inhibitor, single point]",
Cn1cccc1C(=O)N/N=C/c1c(Cl)cccc1Cl,,inactive: -20.4%
Cn1c(=O)[nH]c2cc(Cl)cnc21,,inactive: 2.56%
COC(=O)c1cc(CN2CCN(c3ccccc3C)CC2)ccc1O,active: 56.2 µM,
COc1cc(CCC(=O)Nc2nnc(C)s2)cc(OC)c1OC,"inconclusive: 89.1 µM [inhibitor, single point]",
CCCn1c(NCc2c[nH]c3ccccc23)nc2ccccc21,"inconclusive: 63.1 µM [inhibitor, single point]",
COc1ccc(CCNC(=O)COC(=O)c2ccco2)cc1OC,,inactive: 8.68%
COCCCN1C(=O)C(=O)/C(=C(/O)c2ccc3c(c2)CC(C)O3)C1c1cccnc1 (centres undefined),"inconclusive: 89.1 µM [inhibitor, partial curve, poor fit]",
N=C1C(c2nc3ccccc3[nH]2)=C(O)CN1c1ccc(CC(=O)O)cc1,"inconclusive: 50.1 µM [inhibitor, partial curve]",
O=C(Nc1ccc(S(=O)(=O)N2CCCC2)cc1)C1CC(=O)N(c2ccccc2)C1 (centres undefined),,inactive: -10.2%
Cc1ccc(Nc2nc(CSc3nnc(-c4ccccc4)n3C)cs2)cc1,"inconclusive: 50.1 µM [inhibitor, partial curve]",
Brc1cccc(CN2CCCCCC2)c1,"inconclusive: 89.1 µM [inhibitor, single point]",
CCc1ccc2c(c1)c(N=NC1=NC(=O)CS1)c(O)n2C,"inconclusive: 56.2 µM [inhibitor, partial curve]",
CC(C)(C)C1CCC(OCC(O)CN2CCN(Cc3ccccc3)CC2)CC1 (centres undefined),"inconclusive: 79.4 µM [inhibitor, single point]",
Cc1ccc(C(=O)Nc2nc(-c3ccco3)c(-c3ccco3)s2)o1,active: 20 µM,
Cc1cc(N2CCN(C)CC2)nc2ccc(NC(=O)CCC3CCCC3)cc12,"inconclusive: 79.4 µM [inhibitor, single point]",
COC(=O)C1=C(C)N(Cc2ccccc2)C(=NCCc2ccccn2)N[C@H]1c1cccc(C(F)(F)F)c1,"inconclusive: 79.4 µM [inhibitor, single point]",
CC1CCN(S(=O)(=O)c2ccc3nc(Nc4cccc(F)c4)ccc3c2)CC1,,inactive: 26.3%
COc1ccc2[nH]c(C(=O)N3CCN(c4ccccc4F)CC3)c(C)c2c1,"inconclusive: 79.4 µM [inhibitor, single point]",
COc1ccc(/C=C2\CCc3ccccc3C2=O)cc1CN1CCOCC1,"inconclusive: 44.7 µM [inhibitor, partial curve]",
O=C(NC(=S)Nc1cccc(Cl)c1N1CCCCC1)c1ccco1,"inconclusive: 35.5 µM [inhibitor, full curve, poor fit]",
O=C(Nc1nc(-c2ccc(S(=O)(=O)N3CCCCCC3)cc2)cs1)c1ccccc1,"inconclusive: 89.1 µM [inhibitor, single point]",
CCc1noc(C)c1C(=O)OCC(=O)N(C)c1c(N)n(Cc2ccccc2)c(=O)[nH]c1=O,,inactive: 10.1%
